Test results reported in paper PMC7672110 (Scientific Reports, 2020).

Target: T1, TRAIL (114-281), His-tagged (human, UniProt P50591 114-281)
T1 construct: TRAIL (TNF-related apoptosis-inducing ligand), soluble form, amino acids 114-281; The TRAIL gene stood between NdeI and BamHI of pET-28a; the construct of TRAIL alone is not described apart from that; Native TRAIL without His tag was used only for pharmacokinetics; also called monomeric TRAIL; His-tagged TRAIL; source: E. coli BL21 (DE3), purified (Ni-NTA agarose)
Assay: SPR; DR5 extracellular region immobilised by amine coupling on dextran-coated chips (585 RU); TRAIL-ATNC 0.52-8.33 nM or TRAIL 25-400 nM flowed at 25 ul/min, 25 C; 100 mM Tris pH 7.4, 150 mM NaCl, 0.005% Tween20, 1 mM DTT; 1:1 Langmuir model
Details: both partners purified

B1: extracellular region (1-182) of the DR5 protein (receptor)
chain: not shown
notes: signal peptide in the construct; TRAIL receptor 2 (death receptor 5, DR5), extracellular region, residues 1-182; The catalogue product may carry a His tag (surmised from the catalogue number); also called TRAIL receptor 2; death receptor 5; source: bought: Sino Biological
Kd: 60.2 nM
koff: 0.0015 s⁻¹
kon: 25800 M⁻¹ s⁻¹
